Laboratory results as given in patent US10655130B2, “Modulation of breast cancer growth by modulation of XBP1 activity” (Cornell University, priority 2012, dated 2020).

Experiments:
[1] = test system: MDA-MB-231 xenograft tumors; details: after treatment from day 15 until day 30
[2] = test system: MDA-MB-231 xenograft tumors; details: cells derived from treated tumors, day 20

## COc1cccc2c1C(=O)c1c(O)c3c(c(O)c1C2=O)C[C@@](O)(C(=O)CO)C[C@@H]3O[C@H]1C[C@H](N)[C@H](O)[C@H](C)O1 [doxorubicin]
[1]
  relapse from treatment: 60 days
[2]
  mammosphere formation: increased
